Values marked as one replicate rest on one cluster of the flow cell; about a third of the high ones do not repeat.
System: ATP
Assay: switch fluorescence ratio, 500 uM ATP over buffer (Cy3 cluster intensity, sum of 5 cycles each) (fold (ratio)); higher = stronger signal-on switching upon ATP binding; sequences stand for … in TCGTCGGCAGCGTCAGATGTGTATAAGAGACAGTTTTTTTTTTTTTTTTTTTTTTTTT…TC
Settings: aptamer strand: ATP DNA aptamer (quencher-CACCTGGGGGAGTATTGCGGAGGAAGG + anchor), 100 nM annealed; ATP concentration: 500 uM; one replicate
Summary of the method: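 For every switch-domain sequence, the fluorescence ratio is the mean of per-cluster values, each being summed target-cycle Cy3 intensity over summed buffer-cycle Cy3 intensity. Clusters outside 100-1000 RFU were excluded. On a modified Illumina MiSeq flow-cell, the Cy3-labelled switching-strand clusters were annealed to 100 nM quencher-labelled ATP aptamer, imaged in selection buffer and then after 15 min with 500 uM ATP at 22 °C. Five such cycles were run, with NaOH stripping and re-annealing between them.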
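Note: ATP exposure 15 min at 22 °C before imaging.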

Row | Sequence | switch fluorescence ratio
1 | AAGCAGCGT | 1.01
2 | GCGAGTAAAG | 0.985
3 | ATATTCTTCT | 0.984
4 | GTCTTATGGT | 0.991
5 | AGTTTCGTAA | 1.03
6 | GATTAAGCCT | 1.16
7 | ACGGCATTG | 1.03
8 | GCGGTCTTCC | 1.01
9 | ATCGTTGCGC | 0.96
10 | CTGTGAGAGT | 0.976
11 | AAGGAGGT | 0.964
12 | TGGGGCACTA | 0.992
13 | AGAGCATCGT | 0.956
14 | GTGCCCACAC | 1.03
15 | CGTTCGATGT | 0.964
16 | CCGCATTCAC | 2.14
17 | TATGTTATGC | 1.08
18 | AGAACTTAGG | 1
19 | GGAAAAATCA | 1.03
20 | AGCCTCCTGC | 1.02
21 | TCGCTGTATA | 1
22 | TAAGCCCAAG | 1.09
23 | ATGGTGGCTC | 1.01

Row | Sequence | switch fluorescence ratio
24 | GTTATGGAGT | 1.04
25 | ATGACTACTT | 0.964
26 | TAAACTGCTT | 0.979
27 | TAGTGTCTGC | 1
28 | CTATGCTGTA | 1.07
29 | TTCACGGAC | 1.72
30 | GGACCTAGCA | 1.08
31 | GGACAATGGT | 0.992
32 | TAGCGTCTT | 0.987
33 | TCCGAGCACT | 5.01
34 | AGTATCACG | 0.999
35 | GGCATCCTCA | 1.04
36 | CTACCTCTGG | 1
37 | CCATCTGAGT | 1.09
38 | CGGTGGCGGA | 1.01
39 | CAGTTTGTAA | 1.01
40 | GGGTGGTTAA | 1.02
41 | TAAGAGTGCG | 0.994
42 | GTTAAACTGG | 0.98
43 | ACATACACCG | 1.33
44 | GATAGGTTTA | 1
45 | TGACGCAGAA | 2.56
46 | TTAGTGCCCT | 1.09

Row | Sequence | switch fluorescence ratio
47 | ATCTGAGAGT | 0.989
48 | ATAAATAGTT | 0.998
49 | ATTTCATGAT | 0.979
50 | ATCAGTGTGC | 1.11
51 | TAGCATTTAT | 0.982
52 | TCCCTGTCCA | 1.13
53 | TCCTGGATGA | 1.01
54 | GCCCTGACAA | 1.03
55 | TACCTTGAT | 1.04
56 | TACCAGGCAT | 1
57 | GCACACCTGG | 1.09
58 | TAATAACTA | 1.01
59 | GGGGCCTGAT | 1
60 | ATTCACGACC | 1.21
61 | GAAAAGACAG | 1.05
62 | GATGTCTACA | 0.986
63 | CATTAACGTG | 1.02
64 | CAGAAAAGCG | 1.02
65 | CACGACTTCG | 0.985
66 | AGTGCATGGT | 0.993
67 | ATGAGAAATA | 1.04
68 | TAGAACAATA | 1.01
69 | TAGAGATTC | 1.02

Row | Sequence | switch fluorescence ratio
70 | GTCACAAGTT | 1.03
71 | TTGAACCCAG | 1.05
72 | CAATATGAAG | 0.996
73 | CGAGAGCTGG | 1.02
74 | ACCGTATTGG | 1.05
75 | GACCTTGATC | 1.08
76 | CTTCTGTTCC | 1.04
77 | ATTTACGCAC | 1.83
78 | CAACTGAGCG | 1.05
79 | TCCATGATT | 1.02
80 | CCGGTGACAC | 1.38
81 | GAAGGCAGAA | 1.03
82 | CCAACTATAT | 1.07
83 | CTTAGTTCAG | 1.03
84 | TCGCTTGGTC | 1.07
85 | CGATGCTACT | 1.41
86 | TCGGTTGTGG | 0.994
87 | TACATGCTTT | 1.03
88 | CGGGTTAGGG | 0.953
89 | CAAATGCTCA | 1.03
90 | AGTCTGTGTT | 0.942
91 | TCCGAGGGGC | 1.29
92 | GAGCTCGACC | 0.998

Row | Sequence | switch fluorescence ratio
93 | GGGTCTGTTC | 1.05
94 | GGAGCATTAA | 2.79
95 | CGACTCTTTT | 0.988
96 | TAACCGCAGT | 1.68
97 | GAAGAGAATG | 0.953
98 | CGGCCTCGC | 1.07
99 | AACGGGACAG | 1.05
100 | ATTGGTGATG | 0.982
101 | CAAGGTGAAT | 1.01
102 | ATCTTAAGC | 0.972
103 | TTCCAAGTG | 1.04
104 | ATGACGCTCT | 0.949
105 | GAAGGATGGT | 0.957
106 | TATACCCTGC | 1.05
107 | CTAATAGGGC | 0.981
108 | TGTGAGGAAA | 1.01
109 | TCGACGATTA | 1.14
110 | CGAAATGCTA | 1.24
111 | TAACAGGGTG | 1.1
112 | AGAGCGCCTG | 1.01
113 | GTTTAGTCG | 1.01
114 | CGGTTCCAAA | 1.05
115 | CGTCAAGCAG | 1.16

Row | Sequence | switch fluorescence ratio
116 | CTGATTCGC | 1.11
117 | GGTGCTTGG | 1.04
118 | CATCGTTGAC | 1.11
119 | CTGCACTACC | 3.21
120 | CCAGGATACG | 1.03
121 | CCTCAAGTA | 2.23
122 | CAAAAGTCGC | 0.966
123 | GAAACGTGGG | 0.98
124 | CTTTGGCCTG | 0.989
125 | ACCAAGTCA | 1.07
126 | ATCTCACGTA | 1.21
127 | GTAGTCTCTG | 0.979
128 | CTTAATTTAT | 1.03
129 | TTTGGCGC | 0.977
130 | TCCAAGAGAA | 1.03
131 | GGCGCCTTTA | 0.962
132 | CCGTCGTAA | 4.27
133 | AGCGGAGGTC | 0.958
134 | CCAATGTGGG | 0.961
135 | AGTATAGCAG | 1.03
136 | ATCCGACTTG | 1.02
137 | CAATATCAGC | 1.02
138 | GAGATACTTG | 1.05

Row | Sequence | switch fluorescence ratio
139 | ATAAACGTGC | 1.12
140 | CGGTCAAGTA | 0.915
141 | TGGGGTCCCA | 0.981
142 | TTGGTCGCAT | 0.993
143 | AACAAGTGAT | 1.01
144 | ACCATCCTC | 1.8
145 | AACTGTTTGG | 0.995
146 | GTTGGAGAGT | 1
147 | GGTATCTTAA | 0.979
148 | GCTAAGTAAT | 1.04
149 | TGCCTCATTT | 1.03
150 | GCTATATAGG | 0.966
151 | CCGGGAAAAG | 1.06
152 | ATGTTTTAGC | 1.02
153 | GTTTCCTTGG | 0.983
154 | GGGGCAGCGG | 1.01
155 | AGAACATTTT | 1.03
156 | CTTAGCTCGC | 1.07
157 | GGCTCGTG | 0.967
158 | AAGTCTTGCG | 1.06

— the supplement of paper PMC10126150
